Assay results as given in PubChem BioAssay AID1460 (National Center for Advancing Translational Sciences (NCATS), 2008).
Among all 270,000 compounds or so, about 5,800 (2.1%) were called active. This list was built around the results that the source calls inconclusive (neither active nor inactive); the mix of calls is not that of the screen. Calls follow the shape of the dose curve; as a rule, active = well fitted inhibition curve with a large enough effect; inconclusive = small, poorly fitted or top-dose-only effect; inactive = flat fitted curve, though single readings scatter. Where the call is inconclusive, the potency comes from a doubtful curve fit.

target: Microtubule-associated protein tau (Homo sapiens) (UniProt P10636); test: qHTS for Inhibitors of Tau Fibril Formation, Thioflavin T Binding; settings: recombinant tau K18 P301L (four-repeat tau fragment), heparin-induced fibrillization, ThT fluorescence; series mostly up to 57.4 µM; also: nearly all actives have a fitted effect of over 55% in size
Sequence of UniProt P10636 (P10636 whole entry, looked up, the tested form may be a part): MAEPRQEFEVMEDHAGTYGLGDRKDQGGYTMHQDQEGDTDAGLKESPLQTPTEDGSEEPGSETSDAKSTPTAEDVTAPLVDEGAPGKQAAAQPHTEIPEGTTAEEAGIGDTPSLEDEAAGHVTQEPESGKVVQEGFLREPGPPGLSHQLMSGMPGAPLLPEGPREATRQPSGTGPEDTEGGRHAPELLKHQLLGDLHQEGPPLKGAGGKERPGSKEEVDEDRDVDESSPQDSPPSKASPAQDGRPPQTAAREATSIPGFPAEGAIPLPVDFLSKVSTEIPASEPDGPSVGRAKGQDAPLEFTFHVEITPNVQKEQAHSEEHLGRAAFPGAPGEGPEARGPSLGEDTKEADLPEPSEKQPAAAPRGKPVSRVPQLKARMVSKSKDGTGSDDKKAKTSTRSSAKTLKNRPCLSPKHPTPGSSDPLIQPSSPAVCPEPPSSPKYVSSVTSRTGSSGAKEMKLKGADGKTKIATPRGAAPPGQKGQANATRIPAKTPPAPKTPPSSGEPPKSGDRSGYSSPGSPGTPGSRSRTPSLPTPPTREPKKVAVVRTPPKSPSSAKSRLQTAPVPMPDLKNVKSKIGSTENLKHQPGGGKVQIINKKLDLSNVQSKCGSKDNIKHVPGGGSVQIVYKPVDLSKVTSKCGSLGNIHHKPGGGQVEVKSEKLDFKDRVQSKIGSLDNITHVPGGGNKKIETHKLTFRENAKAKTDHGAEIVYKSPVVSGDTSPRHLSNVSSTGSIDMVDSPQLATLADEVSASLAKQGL
Procedure, shortened: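 In this qHTS, human K18 P301L tau is incubated with compound and heparin for 6 hr at 37 C, and Thioflavin T fluorescence then reports fibril load.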
Potency is read from the fitted curve at half-maximal effect; tags tell the direction and shape of the fitted curve.

| SMILES | Potency |
| --- | --- |
| COc1ccc(Nc2nc3c(C)cccn3c(=O)c2C=NCc2ccccc2)cc1 | inconclusive: 15.8 µM [inhibitor, partial curve] |
| Cc1c(N2C(=O)/C(=C3\C(=O)N(CC(=O)O)c4ccccc43)SC2=S)c(=O)n(-c2ccccc2)n1C | inconclusive: 15.8 µM [inhibitor, partial curve] |
| COC(=O)C(NNc1ccc(F)cc1)(NC(=O)c1ccccc1)C(F)(F)F (stereo unspecified) | inactive |
| COc1ccc(O[C@H]2C=C[C@@H](c3ccccc3)O[C@@H]2COC(=O)CC/C(C)=N/O[C@@H](C)CN2CCCCc3nc(C)c(C)cc32)cc1 | inconclusive: 11.2 µM [inhibitor, partial curve] |
| CCOC(=O)C1=c2s/c(=C\c3ccncc3)c(=O)n2C(N)=C(C(=O)OC)C1c1ccncc1 (stereo unspecified) | inconclusive: 15.8 µM [inhibitor, partial curve] |
| COc1cccc(NC(=O)CSCc2cc(=O)c3ccc(C)c(C)c3[nH]2)c1 | inactive |
| CON(C)S(=O)(=O)c1ccc2c(c1)NC(=O)C1CCCN21 (stereo unspecified) | inconclusive: 35.5 µM [inhibitor, single point] |
| Cc1ccc(NC(=O)CSc2nccn2Cc2ccco2)cc1Cl | inactive |
| CCCCCCCC1=CC2=C(Cl)C(=O)C(C)(OC(C)=O)C(=O)C2=CO1 (stereo unspecified) | inconclusive: 6.31 µM [inhibitor, partial curve] |
| COC(=O)c1sccc1NC(=S)N1CCCCC1 | inactive |
| Cc1ccc(C2=NOC(=O)/C2=C\c2ccc(C)o2)cc1 | inconclusive: 28.2 µM [inhibitor, partial curve] |
| COc1cc2sc(C)nc2c2sccc12 | inconclusive: 39.8 µM [inhibitor, single point] |
| COc1ccc(NC(=O)C2CC(c3ccc(OC)c(OC)c3)=NO2)cc1OC (stereo unspecified) | inconclusive: 10 µM [inhibitor, partial curve] |
| COc1cc(CN2CCN(Cc3ccc(C)cc3)C(CCO)C2)cc(OC)c1O (stereo unspecified) | inconclusive: 22.4 µM [inhibitor, partial curve] |
| O=C(C1CCCCN1S(=O)(=O)c1ccccc1)N1CCN(C(c2ccccc2)c2ccccc2)CC1 (stereo unspecified) | inconclusive: 12.6 µM [inhibitor, partial curve] |
| CCOc1ccccc1NC(=O)CN(c1ccc(C)cc1)S(=O)(=O)c1c(C)noc1C | inconclusive: 0.0251 µM [inhibitor, full curve, poor fit] |
| COc1cccc(N2CCN(C(=O)CCCn3c(=O)[nH]c4ccc(Br)cc4c3=O)CC2)c1 | inconclusive: 12.6 µM [inhibitor, partial curve] |
| CC(C)CCn1c(SCc2ccc(Cl)cc2)nc2c1c(=O)[nH]c(=O)n2C | inconclusive: 6.31 µM [inhibitor, partial curve] |
| CCCn1c2ccccc2c2cnn(CC(=O)N3CCN(c4ccccc4F)CC3)c(=O)c21 | inactive |
| CCN(CC)C(=O)c1cccc2c1C(=O)c1ccccc1-2 | inactive |
| O=C(CCCCn1c(=O)c2ccccc2n(Cc2ccccc2Cl)c1=O)NCc1ccc2c(c1)OCO2 | inactive |
| COC(=O)c1ccccc1N=Nc1c(N)n[nH]c1N | inconclusive: 15.8 µM [inhibitor, partial curve, poor fit] |
| O=C(Nc1cccnc1)c1ccc(Oc2ccccc2)cc1 | inactive |
| O=C1C2C3C=CC(C3)C2C(=O)N1/N=C/c1cn(Cc2ccccc2)c2ccccc12 (stereo unspecified) | inactive |

| SMILES | Potency |
| --- | --- |
| O=C1CC(c2cccs2)c2cc3c(cc2N1)OCO3 (stereo unspecified) | inconclusive: 39.8 µM [inhibitor, single point] |
| COc1cc(/C=N/NC(=O)c2ccncc2)ccc1OC(=O)c1ccccc1Cl | inconclusive: 11.2 µM [inhibitor, partial curve] |
| CCCCSC1=C(C#N)C(c2ccccc2C)C(C(=O)OCC)C(=O)N1 (stereo unspecified) | inconclusive: 14.1 µM [inhibitor, partial curve] |
| Nc1ncnc(Sc2ncccn2)c1[N+](=O)[O-] | inconclusive: 3.16 µM [inhibitor, full curve] |
| O=c1[nH][nH]c(-c2ccccc2)c1C=Nc1ccc(OC(F)(F)F)cc1 | inconclusive: 31.6 µM [inhibitor, single point] |
| N/C(=N\OC(=O)CCC1CCCCC1)c1cccc([N+](=O)[O-])c1 | inconclusive: 17.8 µM [inhibitor, partial curve, poor fit] |
| C=CCc1cccc(CNc2nc3ccccc3n2CCC)c1O | inactive |
| O=c1c2cnn(-c3ccc(F)cc3)c2ncn1Cc1cccc(Cl)c1 | inactive |
| Cc1c(Cl)c([N+](=O)[O-])nn1CCCC(=O)N1CCN(c2ccccc2)CC1 | inconclusive: 7.08 µM [inhibitor, partial curve] |
| Cc1ccc(-n2c(C)cc(C(=O)CSc3nncs3)c2C)cc1 | inconclusive: 39.8 µM [inhibitor, single point] |
| CCCC(=O)NCCCCNC(=O)CCC | inactive |
| CC(C)n1c(-c2ccc(N(C)C)cc2)nc2ccccc21 | inconclusive: 15.8 µM [inhibitor, partial curve] |
| CCCCCn1c(CN2CCN(C(=O)c3ccco3)CC2)nc2c1c(=O)n(C)c(=O)n2C | inactive |
| O=[N+]([O-])c1ccc(N/N=C/c2ccc[nH]2)cc1 | inactive |
| COc1ccc(CNC(=O)CCC2N=C3c4ccccc4N=C(SCc4cccc(F)c4)N3C2=O)cc1 (stereo unspecified) | inactive |
| CSC1=NSC2=NC(=O)/C(=C\c3cccs3)C(=N)N12 | active: 14.1 µM |
| Cc1cc(C)n(-c2nc3ccccc3nc2Nc2ccc(Cl)cc2Cl)n1 | inactive |
| CC1CCN(c2ccc(NC(=S)NC(=O)c3ccc(-c4cccc([N+](=O)[O-])c4)o3)cc2)CC1 | active: 2 µM |
| COc1ccc(NC(=S)N(CCN(C)C)C(C)c2ccco2)cc1Cl (stereo unspecified) | inactive |
| COC(=O)[C@@]1(Cc2ccc(F)cc2)[C@H]2c3cc(C(=O)N4CCCC4)n(Cc4ccccn4)c3C[C@H]2CN1C(=O)c1ccccc1 | inactive |
| CCn1c(=O)c2cc(C(=O)NCCCOC)sc2c2ccccc21 | inactive |
| c1coc(CNc2nc(-c3cccs3)cs2)c1 | inconclusive: 20 µM [inhibitor, partial curve] |
| CC(=O)Nc1ccc(NC(=O)C(=O)c2cn(CC(=O)N3CCCCC3)c3ccccc23)cc1 | inconclusive: 12.6 µM [inhibitor, partial curve, poor fit] |
| CC1(C)Cc2c(c(N3CCOCC3)nc3snc(N)c23)CO1 | active: 12.6 µM |

| SMILES | Potency |
| --- | --- |
| COc1ccc(NC(=O)Cn2c(=O)n(-c3ccccc3)c(=O)c3c4c(sc32)CCCC4)c(OC)c1 | inconclusive: 31.6 µM [activator, single point] |
| CCCOc1ccc(-c2nnc(-c3cccs3)o2)cc1 | inactive |
| Cc1ccc(C(=O)c2cn(Cc3cccc(C)c3)c3nc(C)ccc3c2=O)cc1 | inconclusive: 0.0282 µM [inhibitor, full curve, poor fit] |
| CN(C)c1ccc(-c2nccc(NCc3ccccc3)n2)cc1 | inconclusive: 14.1 µM [inhibitor, partial curve] |
| COC(=O)c1c(CSc2cccc(C)c2)noc1C(=O)NCc1ccco1 | inconclusive: 14.1 µM [inhibitor, partial curve, poor fit] |
| Cc1nn2c(=O)cc(COC(=O)c3cccc(NC(=O)COc4ccccc4Cl)c3)nc2s1 | inconclusive: 0.178 µM [inhibitor, full curve] |
| CCN(Cc1ccccc1)c1ccc(/C=N/N2CCOCC2)cc1 | inconclusive: 20 µM [inhibitor, partial curve, poor fit] |
| Cc1ccc(N/C=C/c2onc(C)c2[N+](=O)[O-])cc1 | active: 0.631 µM |
| O=C(NNc1ncc(C(F)(F)F)cc1Cl)c1c(Cl)cccc1Cl | inconclusive: 15.8 µM [inhibitor, partial curve] |
| CCN(CC)S(=O)(=O)c1ccc(NC(=O)Nc2cccc(C(F)(F)F)c2)cc1 | inactive |
| CCOC(=O)c1cc2c(ccn2C)n1Cc1ccccc1Cl | inconclusive: 25.1 µM [inhibitor, partial curve] |
| Cc1ccc2c(CC(=O)Nc3ccc(S(=O)(=O)N4CCCCC4C)cc3)coc2c1 (stereo unspecified) | inactive |
| COc1ccc(CNC(=O)CCCn2nc(C)c3sc4ccccc4c3c2=O)cc1OC | inconclusive: 39.8 µM [activator, single point] |
| Cc1ccc(S(=O)(=O)c2nc(N3CCOCC3)sc2Cl)cc1 | inactive |
| CSC(=O)NC(=O)NC(=O)c1ccc([N+](=O)[O-])cc1 | inconclusive: 0.891 µM [inhibitor, full curve, poor fit] |
| O=C(NCc1ccco1)c1cc(-c2cccs2)nc2ccccc12 | inactive |
| CCCCOc1ccc(C2=NC(c3cccs3)=Nc3ccc(CC)cc3N2)cc1 | inconclusive: 12.6 µM [inhibitor, partial curve] |
| O=c1oc2ccccc2c(O)c1/C=N/c1ncccn1 | inconclusive: 39.8 µM [inhibitor, single point] |
| CCCN1CCN(C(=O)Cn2c(-c3cccs3)cc3ccccc32)CC1 | inactive |
| COc1cccc(/C=c2\sc3nc(-c4cccs4)nn3c2=O)c1OC | inconclusive: 25.1 µM [inhibitor, partial curve] |
| Cc1cc(C)c2nc(N3CCC(C(=O)N4CCN(C(=O)c5ccco5)CC4)CC3)sc2c1 | inconclusive: 17.8 µM [inhibitor, partial curve] |
| O=c1cc(-c2ccc(O)cc2)oc2cc(O)ccc12 | inactive |
| CCOc1ccc2nc(N3CCC(C(=O)Nc4ccccc4CC)CC3)sc2c1 | inconclusive: 2.51 µM [inhibitor, full curve] |
